# Data as given in PubChem BioAssay AID2546 (National Center for Advancing Translational Sciences (NCATS), 2010).
# Values joined by “and” are separate entries in the source; they are usually repeats but may differ in a detail not shown here. Equal entries are not always repeated. About 11,000 (3.5%) of roughly 310,000 compounds were called active. This list was built around the results that the source calls inconclusive (neither active nor inactive); the mix of calls is not that of the screen. Calls follow the shape of the dose curve; as a rule, active = well fitted inhibition curve with a large enough effect; inconclusive = small, poorly fitted or top-dose-only effect, or effect the other way; inactive = flat fitted curve, though single readings scatter. Where the call is inconclusive, the potency comes from a doubtful curve fit.
# Experiment: VP16 counterscreen qHTS for inhibitors of ROR gamma transcriptional activity;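 also: Gal4-VP16 expression switched on by copper sulfate through the metallothionein promoter; nearly all actives have a fitted effect of over 50% in size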
# Conditions: Drosophila S2 Gal4-VP16 UAS-luciferase, luminescence, 20 h; activity, negative = inhibition: at 53.6 µM (top of the series)
# % is scaled to controls: 0 for no effect and ±100 for the full control effect; potency is read from the fitted curve at half-maximal effect; tags tell the direction and shape of the fitted curve.
SMILES,Potency,"activity, negative = inhibition"
Cc1ccc(N2C(=O)c3cccc(Oc4ccc(Cl)cc4)c3C2=O)c(C)c1,"inconclusive: 12.6 µM [inhibitor, single point]",–
Cc1ccc2nc(-c3ccccc3)cc(C(=O)N3CCc4ccccc4C3)c2c1,"inconclusive: 35.5 µM [inhibitor, single point]",–
CCc1c(C2(O)CCCCC2)[nH]c2cc(C(F)(F)F)ccc12,"inconclusive: 25.1 µM [inhibitor, single point]",–
S=C(NCCc1ccccc1)NCC(c1ccco1)N1CCCCC1 (stereo unspecified),"inconclusive: 35.5 µM [inhibitor, single point]",–
Fc1cccc(F)c1/C=C/c1ccc2ccccc2n1,"inconclusive: 15.8 µM [inhibitor, single point]",–
COc1cc(C=C(c2nc3ccccc3s2)c2nc3ccccc3s2)cc(OC)c1O,–,inactive: 30.2%
NNC(=O)c1cccc(COc2ccccc2Br)c1,"inconclusive: 35.5 µM [inhibitor, single point]",–
COc1cccc(NC2=Nc3cccc4cccc2c34)c1,"inconclusive: 35.5 µM [inhibitor, single point]",–
COC(=O)c1cc(N=C(N)N=C(N)N)cc(C(=O)OC)c1,–,inactive: -6.39%
CC(C)(C)n1nnnc1C(c1cccs1)N(Cc1ccc(Cl)cc1)CC1CCCO1 (stereo unspecified),"inconclusive: 35.5 µM [inhibitor, single point]",–
CCOC(=O)c1c(C)oc(NC(=O)CCl)c1C(=O)OCC,"inconclusive: 35.5 µM [inhibitor, single point]",–
COc1cccc(CN2CCNC(=O)C2CC(=O)N(C)C2CCOCC2)c1OC (stereo unspecified),"inconclusive: 35.5 µM [activator, single point]",–
COC(=O)c1ccc([N+](=O)[O-])cc1N1C(=O)C2C3CCC(C3)C2C1=O (stereo unspecified),–,inactive: -17.4%
C/C(=N\Nc1nc(-c2ccccn2)nc2ccccc12)c1ccc(F)cc1,active: 1.12 µM,–
CCC(C)NC(=S)Nc1ccc(F)cc1 (stereo unspecified),"inconclusive: 25.1 µM [inhibitor, single point]",–
C/C(=N\OC(=O)NC1CCCCC1)c1sc(-c2ccccc2)nc1C,"inconclusive: 35.5 µM [inhibitor, single point]",–
CN(CC[C@@H](Oc1ccc(-c2ccccc2)cc1)c1ccc(F)cc1)CC(=O)O,–,inactive: -9.21%
C/C(=N/NC(=O)CNc1ccc(Cl)cc1C)c1ccc(C)cc1,"inconclusive: 11.2 µM [inhibitor, single point]",–
CC(=O)c1ccc(OCC(C)Oc2ccc(C#N)cc2)cc1 (stereo unspecified),"inconclusive: 15.8 µM [inhibitor, single point]",–
CCCCCCCCCC(=O)O,–,inactive: -5.86%
Cc1ccc(/C=N\NC(=O)c2cncc(Br)c2)o1,"inconclusive: 25.1 µM [inhibitor, single point]",–
CCN(CC)CCOc1ccc(/C(=C(/Cl)c2ccccc2)c2ccccc2)cc1,"inactive and inconclusive: 12.6 µM [inhibitor, single point]",–
C=CCNC(=S)N/N=C(\C)c1cccc(NC(C)=O)c1,"inconclusive: 35.5 µM [inhibitor, single point]",–
Cn1nccc1C(=O)Oc1ccc(/C=N/NC(=O)c2ccccc2O)cc1,"inconclusive: 35.5 µM [inhibitor, single point]",–

SMILES,Potency,"activity, negative = inhibition"
CC(C)NS(=O)(=O)c1ccc(NC(=S)NC(=O)c2cccc([N+](=O)[O-])c2)cc1,–,inactive: -17.1%
Cc1cccc(Oc2cc(NC(=O)Cn3cnc([N+](=O)[O-])n3)cc([N+](=O)[O-])c2)c1,"inconclusive: 35.5 µM [inhibitor, single point]",–
CCOc1ccccc1NC(=O)c1ccccc1-c1nc(-c2ccccc2OC)no1,–,inactive: 0.179%
CCCCn1c(=O)c2ccccc2n2c(=S)[nH]nc12,"inconclusive: 20 µM [inhibitor, single point]",–
CC(C)(C)[C@H]1C=C(C(=O)N2CCN(Cc3ccc4c(c3)OCO4)CC2)O[C@@H](OCc2ccc(CO)cc2)C1,–,inactive: -0.384%
CN(C)CCNC(=O)c1ccc2c(=O)n(Cc3ccc(Cl)cc3)c(=S)[nH]c2c1,"inconclusive: 35.5 µM [inhibitor, single point]",–
Cc1cc(C)n2nc(SCC(=O)NC3CCCC(C)C3C)nc2n1 (stereo unspecified),–,inactive: 2.9%
Oc1oc(-c2cccc3ccccc23)nc1/C=N/c1nccs1,active: 12.6 µM,–
Nc1nc(Nc2ccc(Cl)cc2)nc2ccccc12,"inconclusive: 35.5 µM [inhibitor, single point]",–
COc1cccc(-c2noc(C3CCCN(C(=O)c4ccc(F)cc4F)C3)n2)c1 (stereo unspecified),"inconclusive: 35.5 µM [activator, single point]",–
N#C/C(=C\c1ccc(N2CCOCC2)c([N+](=O)[O-])c1)c1nc2ccccc2[nH]1,"inconclusive: 5.62 µM [activator, single point]",–
COc1cccc(/C=C2\Sc3ccc(C(=O)NCC4CCCO4)cc3N(C)C2=O)c1 (stereo unspecified),–,inactive: 6.5%
CC1=NN(C(=O)c2ccccc2C)C(O)(c2ccc(Cl)cc2)C1 (stereo unspecified),active: 7.94 µM,–
CCOc1ccc(NC(=S)NCCCc2ccccc2)cc1,"inconclusive: 35.5 µM [inhibitor, single point]",–
Cc1ccc(CS(=O)Cc2ccc(C(=O)N3CCN(C4CCCCC4)CC3)o2)cc1 (stereo unspecified),–,inactive: -1.63%
O=C(c1cc(C(F)(F)F)cc(C(F)(F)F)c1)N1CCC2(CCCN(c3ccccn3)C2)CC1,active: 12.6 µM,–
C#CCN1C(=O)S/C(=C\c2ccc(N3CCOCC3)cc2C)C1=O,–,inactive: 25.1%
CC(C)CCn1c(=O)c2ccccc2n2c(=S)[nH]nc12,active: 12.6 µM,–
Cc1[nH]c(=O)[nH]c(=O)c1/C=N/NC(=O)[C@H](C)N,"inconclusive: 178 µM [inhibitor, partial curve, poor fit]",–
CCOP(=O)(c1ccccc1)c1nc(-c2ccccc2Cl)oc1N1CCCCC1 (stereo unspecified),"inconclusive: 28.2 µM [inhibitor, single point]",–
CNc1nc(SCC(=O)Nc2ccc(Cl)c(Cl)c2)nc(N2CCOCC2)n1,"inconclusive: 35.5 µM [inhibitor, single point]",–
O=C(O)CCc1ccc(-c2ccccc2)o1,"inconclusive: 22.4 µM [inhibitor, single point]",–
CCOC(=O)c1sc2nc(-c3ccccc3)ccc2c1N,"inconclusive: 28.2 µM [inhibitor, single point]",–
O=C(CSc1nnc(COc2ccc(Br)cc2)o1)NC1CCCCC1,–,inactive: 5.95%

SMILES,Potency,"activity, negative = inhibition"
Cc1c(Cl)cccc1NC(=S)NCC(O)c1ccccc1 (stereo unspecified),"inconclusive: 35.5 µM [inhibitor, single point]",–
Cc1ccc2cccc(NC(=S)NC(=O)c3ccccc3)c2n1,active: 7.94 µM,–
O=C1CCCc2ccccc2N1Cc1c(Cl)cccc1Cl,"inconclusive: 22.4 µM [inhibitor, single point]",–
Cc1ccc(C(=O)Nc2ccc(Br)c(C(F)(F)F)c2)cc1,"inconclusive: 10 µM [inhibitor, partial curve]",–
O=C(Nc1nc2c(F)cc(F)cc2s1)c1ccc([N+](=O)[O-])o1,"inconclusive: 0.891 µM [inhibitor, full curve, poor fit]",–
NC(=O)C(=O)N/N=C/c1ccc([N+](=O)[O-])o1,active: 11.2 µM,–
CCN(CC)C(=O)Cn1c(=O)n(CCCCCC(=O)Nc2ccccc2)c(=O)c2sccc21,"inconclusive: 5.62 µM [activator, single point]",–
COc1ccc(NC(=S)Nc2ccccn2)cc1,active: 7.08 µM,–
COc1ccc2cc(C(=O)C3CCCN(C(=O)c4ccnn4C)C3)ccc2c1 (stereo unspecified),–,inactive: -9.59%
Cc1nn(-c2ccccc2)c(N)c1-c1ccccc1,"inconclusive: 1.26 µM [activator, full curve, poor fit]",–
O=C(c1cccc(F)c1)N1CCN(C(=O)c2nn3cccnc3c2Cl)CC1,–,inactive: 4.26% [at 0.365 µM]
CCCCCC(=O)NC(=S)NC1C2CC3CC(C2)CC1C3 (stereo unspecified),active: 7.94 µM,–
CCOC(=O)Cc1csc(NC(=O)CSc2nnnn2-c2ccc(F)cc2)n1,"inconclusive: 17.8 µM [inhibitor, single point]",–
O=C(CC(n1cncn1)C(Cl)(Cl)Cl)c1ccc([N+](=O)[O-])cc1 (stereo unspecified),"inconclusive: 35.5 µM [inhibitor, single point]",–
Cc1ccc(-n2nc(-c3cccs3)cc2C(=O)NCC2CCCO2)c(C)c1 (stereo unspecified),"inconclusive: 31.6 µM [inhibitor, single point]",–
O=c1c2ccccc2nc(-c2ccc([N+](=O)[O-])cc2)n1O,active: 3.98 µM,–
Cc1nn(Cc2ccccc2Cl)c2sc(C(=O)Nc3nccs3)cc12,"inconclusive: 22.4 µM [inhibitor, single point]",–
CCN(CC)CCC(c1ccc2c(c1)OCO2)c1c(OC)cc(OC)c2c(-c3ccccc3)cc(=O)oc12 (stereo unspecified),"inconclusive: 35.5 µM [inhibitor, single point]",–
CCOC(=O)C1=C(NC(=S)NC(=O)c2ccccc2)c2ccccc2CC1(C)CC (stereo unspecified),active: 7.08 µM,–
CC(NC(=O)/C=C/c1ccco1)c1nc2ccccc2n1Cc1cccc(Cl)c1 (stereo unspecified),active: 11.2 µM,–
COc1ccc(C(=O)CC(=O)C(=O)Nc2ccc(C)c(Cl)c2)cc1,"inconclusive: 20 µM [inhibitor, single point]",–
COc1cc(/C(O)=C(\C#N)c2nc3ccccc3[nH]2)cc(OC)c1OC,"inconclusive: 22.4 µM [inhibitor, single point]",–
COc1cc(-c2nc(-c3ccc4c(c3)-c3ccccc3S4(=O)=O)c(-c3ccccc3)[nH]2)cc(OC)c1OC,"inconclusive: 2.51 µM [inhibitor, full curve]",–
